The source of these data is PubChem BioAssay AID1508624 (National Center for Advancing Translational Sciences (NCATS), 2021).

Screen size: about 48,000 compounds; about 120 (0.25%) were called active. Inconclusive results (about 4%) are left out. The call rests on the fitted dose curve; in most records, active means well fitted activation curve with a large enough effect; inconclusive means small, poorly fitted or top-dose-only effect, or another doubt; inactive means no such curve, though single readings can be large or run the other way. This is one part of the list.

The test in a line: Primary qHTS for Identification of Small Molecule Activators of Huntingtin-Antisense Promoter Activity. Further: nearly all actives have a fitted effect of over 55% in size. The note with it: HEK293 HTT-AS promoter firefly luciferase reporter, 24 h; series mostly up to 57.5 µM; activity change, positive = activation: at the top concentration. Put shortly:
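HEK293 Fluc reporter, 2,500 cells/well, 24 h pre-culture; cpds up to 57.5 uM final, 24 h 37 degrees C; Dual-Glo, 10 min RT; normalized vehicle = 0%, zero RLU = -100%.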
In general terms: In qHTS, concentration-response curves come from the screen itself.
In the case of `COc1ccccc1NC(=O)c1cc(S(=O)(=O)N2CCc3ccccc32)ccc1F`, the “activity change, positive = activation” value was inactive: -30.1%.
The result for `COc1ccc(NC(=O)c2cc3c(=O)n(Cc4cccnc4)ccc3nc2C)cc1Cl` reads inactive: -4.29%; that for `C=Cc1ccc(Cn2c(=O)cc(C)c3c(C)nn(C)c32)cc1`, inactive: -22.1%.
To `Cc1cccc(N2CCN(c3c4c(nc5nncn35)CCC4)CC2)c1C` belongs inactive: -10.4%.
The result for `COc1cc(-c2nnc(SCC(=O)Oc3ccccc3Cl)o2)cc(OC)c1OC` reads inactive: -5.81%; that for `O=[N+]([O-])c1nccn1CO[C@@H](CO)[C@H](O)CO`, inactive: -8.15%; that for `COc1ccc(S(=O)(=O)c2cn(Cc3ccccc3)c3ccc(OC)cc3c2=O)cc1`, inactive: -23.1%.
With `CN(C)c1ccc(C(CNS(=O)(=O)c2ccc(F)cc2)N2CCc3ccccc32)cc1` (configuration not stated), the “activity change, positive = activation” value was inactive: -9.25%.
Take `COc1ccc(CNC(=O)CN2C(=O)COc3ccc(S(=O)(=O)N4CCOCC4)cc32)cc1`: the “activity change, positive = activation” value is inactive: -13.1%.
To `CCOc1ccc(/C=C/c2nc(C#N)c(N3CCN(c4ccccc4)CC3)o2)cc1` belongs inactive: -8.87%.
The result for `CCOCN(C(=O)Cn1cnc2cc(C)c(C)cc21)c1c(C)cccc1CC` reads inactive: -36.7%.
The result for `CCOc1ccc(N(CC)S(=O)(=O)N2CCCC(C(=O)NCCc3ccccc3OC)C2)cc1` (configuration not stated) reads inactive: -35.1%; that for `CC1CCCCN1C(=O)CSc1nnc(-c2ccccc2Cl)o1` (configuration not stated), inactive: 18%; that for `COc1ccccc1CNC(=O)Cn1c(=O)ccc2cc(S(=O)(=O)N3CCCC3)ccc21`, inactive: -3.92%.
On to `Cc1cccc(Oc2coc3cc(OCC(=O)NC4CCCCC4)ccc3c2=O)c1`, for which the “activity change, positive = activation” value was inactive: -33.8%.
For `COc1ccc(-c2cn3nc(N4CCC(C(=O)Nc5ccc(C)cc5)CC4)sc3n2)cc1`, the “activity change, positive = activation” value is inactive: 9.15%.
The result for `O=C(Nc1ccc(C(=O)N2CCN(c3ccc(Cl)cc3)CC2)cc1)c1nsc2ccccc12` reads inactive: -71.4%; that for `Cc1ccc2oc(-c3cc(NC(=O)c4cccs4)cc(C)c3O)nc2c1`, inactive: 3.89%.
For `COc1ccc(Br)cc1CNC(=O)C1COc2ccccc2C1` (configuration not stated), the “activity change, positive = activation” value is inactive: 11.9%.
`Fc1ccc(Nc2nc(Nc3ccc(F)cc3)nc(N3CCOCC3)n2)cc1`: the “activity change, positive = activation” value is inactive: -17.2%.
For the compound `CCCCn1c(SCC(=O)Nc2ccc(F)cc2)nc2c(sc3ccccc32)c1=O`, the “activity change, positive = activation” value is inactive: -1.67%.
The result for `C[C@H](NC(CCc1ccccc1)C(=O)O)C(=O)N1CCC[C@H]1C(=O)O` (some centres not stated) reads inactive: -18.4%; that for `CC(C)c1ccc(NC(=O)Cn2nnc(C(=O)NCc3cccs3)c2N)cc1`, inactive: -8.86%.
In the case of `CCOc1ccccc1N(CC(=O)Nc1ccc(OC)c(Cl)c1)S(=O)(=O)c1ccccc1`, the “activity change, positive = activation” value was inactive: -29.9%.
To `O=C(CSc1nnc(-c2ccc(Br)cc2)n1-c1ccccc1)c1ccccc1` belongs inactive: 0.416%.
The result for `Cc1ccc2oc3c(c(=O)c2c1)C(c1ccc(OCC(N)=O)cc1)N(Cc1ccc2c(c1)OCO2)C3=O` (configuration not stated) reads inactive: -5.14%.
In the case of `COc1ccc(NC(=O)C(=O)NCC2(c3ccccc3)CCCC2)c(OC)c1`, the “activity change, positive = activation” value is inactive: -12.1%.
On to `CCOc1ccc(-c2cc(C(=O)N3CCN(c4cccc(C(F)(F)F)c4)CC3)c3ccccc3n2)cc1`, for which the “activity change, positive = activation” value is inactive: 26%.
Regarding `COc1ccc(C(=O)NCC(c2ccc3c(c2)OCO3)N2CCN(c3ccc(F)cc3)CC2)cc1` (configuration not stated), the “activity change, positive = activation” value was inactive: -35.6%.
Take `Cc1ccc(N(CC(C)C)S(=O)(=O)c2nnc(NC(=O)c3cccs3)s2)cc1`: the “activity change, positive = activation” value was inactive: -21.4%.
As for `CCOc1ccc2oc(=O)cc(CN3CCN(c4ccc(Cl)cc4)CC3)c2c1`, the “activity change, positive = activation” value is inactive: -22.2%.
To `CC(=O)N1CCc2cc(Br)cc(S(=O)(=O)CCC(=O)Nc3ccc(C)cc3Cl)c21` belongs inactive: -13.1%; to `CCc1c(C)c2ccc(O)c(CN3CCN(c4ccccc4)CC3)c2oc1=O`, inactive: -11.8%.
The result for `CCOC(=O)c1c(NC(=O)COc2ccc(Cl)cc2C)sc(C(C)=O)c1C` reads inactive: -4.78% [at 11.5 µM, percent change from vehicle, -100% = no light].
To `CCc1cccc(C)c1NC(=O)CN(C)S(=O)(=O)c1cccc2nsnc12` belongs inactive: 4.6%; to `Cc1ccc(N2CCN(c3nc4c(S(=O)(=O)c5ccc(C)c(C)c5)nnn4c4ccccc34)CC2)c(C)c1`, inactive: -7.99%.
`Cc1c(C(=O)N(Cc2ccc(N(C)C)cc2)CC2CCCO2)oc2ccc(Br)cc12` (configuration not stated): the “activity change, positive = activation” value is inactive: -11.3%.
As for `Cc1ccc(S(=O)(=O)c2cn(C)c3cc(N4CCCCC4)c(F)cc3c2=O)cc1`, the “activity change, positive = activation” value was inactive: -12.8%.
In the case of `COc1ccc(C)cc1NC(=O)N1CCC(CN2CCC(C)CC2)CC1`, the “activity change, positive = activation” value is inactive: -6.18%.
Regarding `Cc1ccc(-n2c(SCC(N)=O)nc3c([nH]c4ccccc43)c2=O)cc1`, the “activity change, positive = activation” value was inactive: -24.9%.
To `O=C(c1ccc(CS(=O)(=O)c2c(Cl)cccc2Cl)o1)N1CCN(c2ccccc2)CC1` belongs inactive: -41.7%; to `Cc1cncn1CCc1nc2c3ccccc3nc(SCC(=O)Nc3ccccc3F)n2n1`, inactive: -0.821%.
As to `Cc1ccc(Cl)cc1N1CCN(c2ncnc3onc(-c4ccc(F)cc4)c23)CC1`, the “activity change, positive = activation” value is inactive: -1.42%.
Regarding `Cc1ccc(Cn2c(C)c(CNC(C)c3ccccc3)c(C(=O)O)c2C)cc1` (configuration not stated), the “activity change, positive = activation” value is inactive: -34.6%.
Consider `CCOC(=O)N1CCN(C(=O)CN(c2cc(C)ccc2OC)S(=O)(=O)c2ccc(C)cc2)CC1`, for which the “activity change, positive = activation” value is inactive: -2.25%.
To `O=C(O)CCCCC(CCSCc1ccccc1)SCc1ccccc1` (configuration not stated) belongs inactive: -21.3%; to `Cc1ccc(-c2nnc(Nc3cccc(C(F)(F)F)c3)c3ccccc23)cc1S(=O)(=O)N1CCOCC1`, inactive: -36.3%.
